Measurements reported in PubChem BioAssay AID485344 (National Center for Advancing Translational Sciences (NCATS), 2010).
Hit rate of the full screen: of about 340,000 compounds, about 6,900 (2%) were called active. Rule as the data show it: active = inhibition above about 30%; inactive = below that, where a call was filed. This is a selection; strong and weak results do not stand in their true shares. Entries without a call were filed so in the source.

The compounds below were run against D(2) dopamine receptor (Homo sapiens) (UniProt P14416) (assay: HTS Assay for Allosteric Antagonists of the Human D2 Dopamine Receptor: Primary Screen for Antagonists). Conditions: HEK293 TREx D2 cells, calcium flux, dopamine EC80; at 10 µM; stronger effect = higher value.
Outline: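 HEK293 T-REx D2 cells, tet-induced, calcium dye no-wash. Cpd pintool add, 180 s kinetic, then EC80 DA, 180 s kinetic. Ca flux read.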
Also: 0% is about no effect.

Sequence of UniProt P14416 (P14416 whole entry, looked up): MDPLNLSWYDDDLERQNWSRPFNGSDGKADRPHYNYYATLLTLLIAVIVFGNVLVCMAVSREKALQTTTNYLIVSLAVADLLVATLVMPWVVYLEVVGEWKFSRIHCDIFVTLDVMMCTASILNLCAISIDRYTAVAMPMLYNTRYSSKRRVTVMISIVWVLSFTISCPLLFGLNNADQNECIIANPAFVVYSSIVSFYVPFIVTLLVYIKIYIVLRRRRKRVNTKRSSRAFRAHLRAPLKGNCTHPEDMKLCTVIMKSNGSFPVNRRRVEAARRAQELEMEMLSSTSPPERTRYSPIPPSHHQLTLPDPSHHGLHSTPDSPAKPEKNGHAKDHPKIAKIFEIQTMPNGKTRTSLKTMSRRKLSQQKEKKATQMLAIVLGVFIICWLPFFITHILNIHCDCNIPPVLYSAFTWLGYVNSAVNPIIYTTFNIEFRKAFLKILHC

Row | SMILES | inhibition
1 | COc1ccc(C(=O)c2c(C(F)(F)F)oc3c2C(=O)c2ccccc2C3=O)cc1OC | active: 30.6%
2 | Cc1cccc(N(CC(=O)NCCSc2ccc(Cl)cc2)S(C)(=O)=O)c1C | 4.21%
3 | Cc1ccc2c(c1)N(C(=O)N1CCC(C(=O)NCc3cccs3)CC1)CC(C)O2 (stereo not drawn) | -15.8%
4 | COc1ccc(CNC(=O)c2cc3c(=O)[nH]c4ccccc4c3n2C)c(OC)c1 | 5.31%
5 | COc1ccc(CCNC(=O)CCCn2c(=O)c3ccccc3n(CC(=O)Nc3ccc(C)cc3Cl)c2=O)cc1OC | -10.5%
6 | CC(NC(=O)CN1C(=O)COc2ccc(Cl)cc21)c1ccccc1 (stereo not drawn) | 27.8%
7 | CCOc1cc(C2CC(=O)Nc3nc(SCc4ccccc4)[nH]c(=O)c32)ccc1O (stereo not drawn) | 5.31%
8 | O=C(Nc1cccc2cccnc12)c1ccc(F)cc1 | 5.91%
9 | CCc1ccc2oc(-c3ccc(NC(=O)c4cc(OC)c(OC)c(OC)c4)cc3)nc2c1 | -1.89%
10 | Cc1ccccc1-c1nnc(C2CCN(S(=O)(=O)c3ccc(Cl)cc3)CC2)o1 | -3.62%
11 | CCc1ccc(CNC(=O)CCCN2C(=O)c3cccnc3Oc3ccc(Cl)cc32)cc1 | 9.21%
12 | Cn1cnc(S(=O)(=O)N2CCC(C(=O)NCc3ccc(Cl)cc3)CC2)c1 | -0.003%
13 | COc1ccc(CNC(=O)c2cc3c(=O)n(C)c4ccccc4c3n2C)cc1 | -0.149%
14 | COCCNC(=O)c1nn(-c2ccc(Cl)cc2)nc1CO | -26.8%
15 | O=C(CSc1ccccc1)NCc1ccc2c(c1)CCN2C(=O)c1ccc(F)cc1 | -22.1%
16 | O=C(Cc1ccccc1)N(Cc1cccnc1)c1nc2ccc(F)cc2s1 | -0.236%
17 | CCCSCCCNC(=O)c1ccc2c(c1)nc1n2CCCCC1 | 7.68%
18 | Cc1ccc(Nc2cc(C)c(C#N)c3nc4ccccc4n23)cc1Cl | -4.8%
19 | CC(C)c1cc(-c2nc(-c3ccccc3)no2)n[nH]1 | -1.28%
20 | Nc1cc(Cl)ccc1C(=O)OCC(=O)NC1CCCCCCC1 | active: 34.5%
21 | COc1ccc(S(=O)(=O)N2CCN(Cc3ccc4c(c3)OCO4)CC2)cc1OC | 10.4%
22 | CN(CC(=O)Nc1ccccc1Cl)S(=O)(=O)c1ccc(C(=O)N2CCOCC2)s1 | 16%
23 | CC(C)c1ccccc1NC(=O)CN1C(=O)c2cccc3cccc1c23 | 2.34%
24 | CCC(=O)Nc1ccc2nc(SCc3ccc(C)cc3)sc2c1 | -13.3%

Row | SMILES | inhibition
25 | Cc1nc(N2CCCC2)c2c(C(=O)N3CCN(c4cccc(C)c4C)CC3)c(C)oc2n1 | 3.08%
26 | O=C(CSc1nc(-c2ccccc2)[nH]c1-c1ccccc1)Nc1ccc2c(c1)OCCO2 | 16.5%
27 | CC1(C)Cc2cccc(C(=O)NC3CCN(Cc4ccccc4)CC3)c2O1 | active: 73.4%
28 | CC(C)(C)c1ccc(S(=O)(=O)NCc2nc3cccnc3n2Cc2ccccc2Cl)cc1 | -5.3%
29 | Cc1ccc(CNS(=O)(=O)c2c(C)nc3scc(C)n3c2=O)cc1 | 3.34%
30 | Cc1ccc(-c2cc(C(=O)Nc3c(C(=O)c4ccccc4)oc4ccccc34)no2)cc1F | -11%
31 | Cc1ccc(Cc2nc3ccccc3nc2SCC(=O)Nc2cccc(C(F)(F)F)c2)cc1 | 6.41%
32 | COC(=O)c1cnn(-c2ccc(C(=O)Nc3ccc(C(C)=O)cc3)cc2)c1N | 7.25%
33 | O=C(CN1CCSc2ccccc21)N1CCN(c2cccc(Cl)c2)CC1 | 11.3%
34 | Cc1ccc(-n2ncc3c(NC4CCCCC4)ncnc32)cc1 | 16.1%
35 | COc1ccc(CC2(CO)CCN(Cc3cnn(-c4ccccc4OC)c3)CC2)cc1 | active: 79%
36 | CCOc1ccc(CNC(=O)Cn2nc(C)c3nn(-c4ccc(Cl)cc4)c(C)c3c2=O)cc1OC | 8.36%
37 | C[C@H](NC(=O)N1CCn2c1nc1ccccc12)C(=O)NC1CC1 | active: 67.1%
38 | CCC(C)NC(=O)c1sc2nc(C)c(C(=O)Nc3ccc(C)cc3C)c(-c3ccc(Cl)cc3)c2c1N (stereo not drawn) | 5.58%
39 | COc1ccc(CNCc2c(C(=O)O)c(C)n(Cc3ccc(Cl)cc3)c2C)c(OC)c1 | -14.1%
40 | CC(=O)c1cc(-c2ccc(F)cc2)n(CCC(=O)Nc2nc3c(C)cccc3s2)c1C | -4.76%
41 | Cc1ccc2c(c1)c1c(c(=O)n(-c3ccccc3C)c(=O)n1CC(=O)NCCC1=CCCCC1)n2C | 4.36%
42 | Cc1nn(CC(=O)NCCc2ccccc2Cl)c(=O)c2nn(-c3ccccc3)c(C)c12 | -1.54%
43 | O=S(=O)(c1ccccc1)N1CCC(c2ccncc2)CC1 | -20.1%
44 | COC(=O)C1=CO[C@@H](C)[C@H]2CN3CCc4c([nH]c5ccccc45)[C@@H]3C[C@H]12 | active: 71.1%
45 | CCc1ccc(NC(=O)c2cc3c(=O)n(Cc4cccs4)ccc3nc2C)cc1 | -2.78%
46 | COc1ccc(Cl)cc1NC(=O)CN(c1cc(C)cc(C)c1)S(=O)(=O)c1c(C)n[nH]c1C | 2.43%
47 | COc1cc(-c2noc(C3CC(=O)N(c4ccc5c(c4)OCCO5)C3)n2)cc(OC)c1OC (stereo not drawn) | -2%
48 | O=C(Nc1cc(F)ccc1F)C1COc2ccccc2C1 (stereo not drawn) | 11.6%
